{"source": "PubChem BioAssay AID1347055", "about": "(National Center for Advancing Translational Sciences (NCATS), 2019)", "note": "Hit rate of the full screen: of about 54,000 compounds, about 120 (0.22%) were called active. Inconclusive results, whose numbers are uncertain, are shown with a selection of clear calls. Calls follow the shape of the dose curve; as a rule, active = well fitted inhibition curve with a large enough effect; inconclusive = small, poorly fitted or top-dose-only effect, or effect the other way; inactive = flat fitted curve, though single readings scatter. No potency is given beside an inconclusive call; the fits are too rough. % is scaled to controls: 0 for no effect and ±100 for the full control effect; potency is read from the fitted curve at half-maximal effect; tags tell the direction and shape of the fitted curve."}
{"biological_target": "Fumarate hydratase, mitochondrial (Homo sapiens) (UniProt P07954)", "sequence (P07954 whole entry, looked up)": "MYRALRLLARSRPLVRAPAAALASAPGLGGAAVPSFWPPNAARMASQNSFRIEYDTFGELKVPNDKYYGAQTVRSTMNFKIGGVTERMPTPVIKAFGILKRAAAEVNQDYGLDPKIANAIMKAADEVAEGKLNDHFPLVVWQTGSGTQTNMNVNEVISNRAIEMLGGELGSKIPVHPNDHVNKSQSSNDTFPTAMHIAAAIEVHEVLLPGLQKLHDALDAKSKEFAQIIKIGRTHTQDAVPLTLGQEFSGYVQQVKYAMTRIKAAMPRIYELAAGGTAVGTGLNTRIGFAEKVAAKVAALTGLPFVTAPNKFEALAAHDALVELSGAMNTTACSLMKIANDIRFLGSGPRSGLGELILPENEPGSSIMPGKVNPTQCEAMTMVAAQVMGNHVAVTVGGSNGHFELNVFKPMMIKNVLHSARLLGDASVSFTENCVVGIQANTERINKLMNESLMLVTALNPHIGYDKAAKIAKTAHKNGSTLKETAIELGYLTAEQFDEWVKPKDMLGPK", "test": "Identification of activators of human fumarate hydratase by quantitative high-throughput screening; also: the screen sought activators but most active calls are inhibition curves; nearly all actives have a fitted effect of over 45% in size", "conditions": "FH coupled MDH/diaphorase resazurin fluorescence, 15 min; activity change, negative = inhibition: at 79.9 µM (top of the series)"}
{"compound": "CCOCCCNC(=O)c1c(NC(=O)Cc2coc3ccc(C)cc23)sc2c1CCC2", "Potency": "inconclusive [inhibitor, partial curve]"}
{"compound": "O=S(=O)(c1cccc(F)c1)N1CCC(Oc2ccc(-n3cnnn3)cc2)CC1", "activity change, negative = inhibition": "inactive: -1.63%"}
{"compound": "COc1ccc(/C=C(\\C#N)c2nc3ccccc3n2C)c(OC)c1", "Potency": "inconclusive [inhibitor, single point]"}
{"compound": "CCOCCCN(Cc1ccco1)C(=O)c1cc2c(=O)[nH]c3ccc(C)cc3c2s1", "Potency": "inconclusive [inhibitor, single point]"}
{"compound": "COc1ccccc1CNC(=O)c1cc2c(s1)-c1ccccc1OC2", "Potency": "inconclusive [inhibitor, partial curve, poor fit]"}
{"compound": "Cc1ccc(C)c(N2CCN(C(=O)c3cc(S(=O)(=O)N4CCCCCC4)cn3C)CC2)c1", "Potency": "inconclusive [inhibitor, partial curve, poor fit]"}
{"compound": "Cc1cccc2sc(N(CCCN(C)C)C(=O)COc3ccccc3)nc12", "activity change, negative = inhibition": "inactive: -2.33%"}
{"compound": "Cc1cccc(N2CCN(C(c3ccccc3)c3nnc(-c4ccccc4Cl)o3)CC2)c1C", "note": "(configuration not stated)", "Potency": "inconclusive [inhibitor, partial curve]"}
{"compound": "CCSc1nn(CC(=O)Nc2ccc(C(=O)OC)cc2)c(N)c1S(=O)(=O)c1ccc(C)cc1", "Potency": "inconclusive [inhibitor, single point]"}
{"compound": "CC1CCN(CC(=O)N2CCCc3c2c(=O)oc2ccc(OCc4ccccc4)cc32)CC1", "Potency": "inconclusive [inhibitor, single point]"}
{"compound": "COc1cc(Nc2nc(SCc3ccccc3F)nc3ccccc23)cc(OC)c1", "Potency": "inconclusive [inhibitor, single point]"}
{"compound": "Cc1ccc2c(CC(=O)N3CCN(c4cccc(Cl)c4)CC3)coc2c1", "Potency": "inconclusive [inhibitor, partial curve, poor fit]"}
{"compound": "CC1CCN(S(=O)(=O)c2ccc3c(c2)N(CC(=O)NCc2ccccc2Cl)C(=O)CS3)CC1", "Potency": "inconclusive [inhibitor, partial curve, poor fit]"}
{"compound": "Cc1ccc(CCNC(=O)c2cc3c(s2)-c2ccccc2OC3)cc1", "activity change, negative = inhibition": "inactive: 2.81%"}
{"compound": "Cc1ccc(NC(=O)c2nc(S(C)(=O)=O)ncc2N(Cc2cccc(F)c2)Cc2ccco2)cc1C", "Potency": "inconclusive [inhibitor, partial curve, poor fit]"}
{"compound": "C=CC(C)(O)CC/C=C(\\C)C(=O)OC1C(O)C(CO)OC(OC(=O)C23CCC(C)(C)CC2C2=CCC4C5(C)CCC(OC6OC(COC7OCC(OC(C)=O)C(O)C7OC7OC(COC(C)=O)C(O)C(O)C7OC(C)=O)C(O)C(O)C6OC6OCC(O)C(O)C6O)C(C)(C)C5CCC4(C)C2(C)C(O)C3O)C1OC1OCC(OC2OCC(O)C(OC3OCC(O)C(O)C3O)C2O)C(O)C1O", "note": "(configuration not stated)", "activity change, negative = inhibition": "inactive: 3.1% [at 13.5 µM]"}
{"compound": "CC1CCCCN1C(=O)CSc1nc2ccccc2nc1Cc1ccccc1", "note": "(configuration not stated)", "Potency": "inconclusive [inhibitor, partial curve]"}
{"compound": "CCOc1ccc(N2C(=O)c3[nH]nc(-c4ccccc4)c3C2c2ccc(O)c(OC)c2)cc1", "note": "(configuration not stated)", "Potency": "inconclusive [inhibitor, partial curve, poor fit]"}
{"compound": "COc1ccc(NC(=O)CSC2=Nc3ccccc3C3=NC(Cc4ccccc4)C(=O)N23)cc1", "note": "(configuration not stated)", "Potency": "inconclusive [inhibitor, partial curve, poor fit]"}
{"compound": "O=C1C2=C(Nc3ccccc3SC2c2ccc(C(F)(F)F)cc2)c2ccccc21", "note": "(configuration not stated)", "Potency": "inconclusive [inhibitor, single point]"}
{"compound": "COc1ccccc1Nc1ncc2c(n1)CCN(CC(C)C)C2", "activity change, negative = inhibition": "inactive: 0.849%"}
{"compound": "CCN(CC)S(=O)(=O)c1nnc(NC(=O)COc2ccccc2)s1", "Potency": "inconclusive [inhibitor, partial curve, poor fit]"}
{"compound": "Clc1cccc(-n2ncc3c(NCCC4=CCCCC4)ncnc32)c1", "activity change, negative = inhibition": "inactive: 3.27%"}
{"compound": "Cc1ccc(C(=O)NCCSc2c(C)[nH]c3ccccc23)cc1C", "Potency": "inconclusive [inhibitor, single point]"}
{"compound": "Cc1ccc(-c2nn(CCC(=O)Nc3ccc(Cl)c(Cl)c3)c(=O)c3ccccc23)cc1", "Potency": "inconclusive [inhibitor, single point]"}
{"compound": "Cc1ccc(NC(=O)CSc2nc3c(c(=O)[nH]2)CN(Cc2ccccc2)CC3)cc1Cl", "Potency": "inconclusive [inhibitor, single point]"}
{"compound": "Cc1ccc(Nc2ncc3c(n2)N(C)C(=O)N(c2cc(NC(=O)c4cccc(C(F)(F)F)c4)ccc2C)C3)cn1", "activity change, negative = inhibition": "inactive: -15.7%"}
{"compound": "COC(=O)c1ccc([C@@H]2Nc3c(cccc3C(F)(F)F)[C@@H]3C=CC[C@@H]32)cc1", "activity change, negative = inhibition": "inactive: -4.75%"}
{"compound": "O=C(O)C1=CO[C@@H](O[C@@H]2O[C@H](CO)[C@@H](O)[C@H](O)[C@H]2O)[C@@H]2C(CO)=CC[C@H]12", "Potency": "inconclusive [activator, partial curve, poor fit]"}
{"compound": "CCCN(CCC)CCCNC(=O)c1cc2c(-c3ccc(Cl)cc3)nn(C)c2s1", "activity change, negative = inhibition": "inactive: -16.4%"}
{"compound": "CCOc1ccccc1N(CC)C(=O)Nc1cn(C)c(=O)c2ccccc12", "Potency": "inconclusive [activator, partial curve, poor fit]"}
{"compound": "Oc1cc2c(cc1O)CN(C(=S)NCCc1ccc(Cl)cc1)CCC2", "Potency": "inconclusive [inhibitor, single point]"}
{"compound": "CCCCOc1ccc(C2=NC(c3ccncc3)=Nc3ccc(Br)cc3N2)cc1", "Potency": "inconclusive [inhibitor, single point]"}
{"compound": "CCc1ccc(-n2c(SC(CC)C(=O)N(CC)CC)nc3n[nH]c(C)c3c2=N)cc1", "note": "(configuration not stated)", "Potency": "inconclusive [inhibitor, partial curve]"}
{"compound": "Cc1cc(Cn2cnc3c2C[C@@H](C(=O)O)N(C(=O)C(c2ccccc2)c2ccccc2)C3)ccc1N", "Potency": "inconclusive [inhibitor, single point]"}
{"compound": "CCCOC(=O)c1c(C)oc2c1cc(NS(=O)(=O)c1ccc(OCC)cc1)c1ccccc12", "activity change, negative = inhibition": "inactive: -10.2%"}
{"compound": "Cc1cccc(N2CCN(C(=O)c3cn(C4CCCCC4)c(=O)c4c3c3ccccc3n4C)CC2)c1C", "Potency": "inconclusive [inhibitor, single point]"}
{"compound": "CCN1CCC(N(Cc2ccc3c(c2)OCO3)C(=O)Nc2cc(Cl)ccc2C(=O)OC)CC1", "Potency": "inconclusive [inhibitor, partial curve, poor fit]"}
{"compound": "CCOc1cccc2sc(N(Cc3cccnc3)C(=O)C3CCCCC3)nc12", "Potency": "inconclusive [inhibitor, partial curve]"}
{"compound": "CCOC(=O)c1c(-c2ccccc2)oc2ccc(NS(=O)(=O)c3ccc(OC)cc3)cc12", "Potency": "inconclusive [inhibitor, single point]"}
{"compound": "COc1ccc(N(Cc2cccs2)C(=O)c2ccccc2C)cc1", "activity change, negative = inhibition": "inactive: -24.3%"}
{"compound": "COc1ccccc1CNC(=O)CC1N=C2c3ccccc3N=C(SCC(=O)Nc3ccc(F)cc3)N2C1=O", "note": "(configuration not stated)", "Potency": "inconclusive [inhibitor, partial curve, poor fit]"}
{"compound": "Cc1ccc(NC(=O)C2CCCN(c3ncnc4c3nc3n4CCCCC3)C2)cc1F", "note": "(configuration not stated)", "Potency": "inconclusive [inhibitor, partial curve, poor fit]"}
{"compound": "COc1cc(C(=O)O)ccc1NC(=O)C1NC(CC(C)(C)C)C(C#N)(c2ccc(Cl)cc2F)C1c1cccc(Cl)c1F", "note": "(configuration not stated)", "Potency": "active: 31.6 µM"}
{"compound": "Cc1ccccc1-c1nnc(CN2CCN(c3cc(Cl)ccc3C)CC2)o1", "Potency": "inconclusive [inhibitor, partial curve, poor fit]"}
{"compound": "CC1=CC(=O)C2C(C)(C)CCCC2(C)C12CCC1(COC(=O)C1)O2", "note": "(configuration not stated)", "Potency": "inconclusive [activator, partial curve, poor fit]"}
{"compound": "CCOC(=O)c1c(S(=O)(=O)N2CCC(C(=O)N3CCN(c4cccc(C)c4C)CC3)CC2)c(C)n(C)c1C", "Potency": "inconclusive [inhibitor, partial curve, poor fit]"}
{"compound": "O=S(=O)(Nc1cccc(Cl)c1)c1ccc2[nH]c3c(c2c1)CCCCCC3", "Potency": "inconclusive [inhibitor, single point]"}
{"compound": "C=CC1C(OC2OC(CO)C(O)C(O)C2O)OC=C(C(=O)OC)C1CC(=O)OCC1C(C)C(O)CC1C(CO)COC(=O)CC1C(C(=O)O)=COC(OC2OC(CO)C(O)C(O)C2O)/C1=C\\C", "note": "(configuration not stated)", "activity change, negative = inhibition": "inactive: 6.42% [at 20.6 µM]"}
{"compound": "Cc1cn2cc(C(=O)N(C)CCO)cc(N[C@@H]3CCOc4cccc(C)c43)c2n1", "Potency": "inactive"}
{"compound": "Cc1coc2c1C(=O)C(=O)c1c-2ccc2c1CCCC2(C)C", "Potency": "inconclusive [inhibitor, partial curve, poor fit]"}
{"compound": "CCOC(=O)CCNc1cc(N2CCc3ccccc3CC2)nc(-c2cccnc2)n1", "activity change, negative = inhibition": "inactive: 0.0118%"}
{"compound": "Oc1ccc(-c2nc3ccccn3c2Nc2ccc3c(c2)OCCO3)cc1", "Potency": "inconclusive [inhibitor, partial curve, poor fit]"}
{"compound": "CCCN1C(C(=O)c2ccccc2)=C(OC(=O)COc2ccccc2)c2ccccc2S1(=O)=O", "Potency": "inconclusive [inhibitor, single point]"}
{"compound": "COc1ccc(C)cc1NC(=O)N(Cc1ccc(C)o1)C1CCN(C(C)=O)CC1", "Potency": "inconclusive [inhibitor, single point]"}
{"compound": "CC(C)Oc1cc(Nc2nc(N[C@@H](C)c3ccc(F)cn3)ncc2Cl)[nH]n1", "Potency": "inconclusive [inhibitor, single point]"}
{"compound": "COc1cccc(-c2nc(SCc3cc(=O)c4ccc(C)c(C)c4[nH]3)n[nH]2)c1", "Potency": "inconclusive [inhibitor, partial curve, poor fit]"}
